In publication PMC10516938, “Conformational dynamics of cohesin/Scc2 loading complex are regulated by Smc3 acetylation and ATP binding” (Nature Communications, 2023):
Residue numbers refer to the chain shown, from its start. No constants are given. Whether binding was seen depends on the method and setting. In cells and extracts the contact can be indirect. Some results given as binding are weak or reduced against the parent protein; the word gives no strength.

What was measured:
[1] = biological target: T1, Smc3^QQ R1008I S72C (S. cerevisiae) (UniProt P47037); assay: cross-linking; in vivo BMOE cross-link of cysteine pairs in yeast cells arrested in late G1 by non-degradable Sic1(9m); Scc1-PK immunoprecipitated, western blot, band intensities quantified
T1 sequence: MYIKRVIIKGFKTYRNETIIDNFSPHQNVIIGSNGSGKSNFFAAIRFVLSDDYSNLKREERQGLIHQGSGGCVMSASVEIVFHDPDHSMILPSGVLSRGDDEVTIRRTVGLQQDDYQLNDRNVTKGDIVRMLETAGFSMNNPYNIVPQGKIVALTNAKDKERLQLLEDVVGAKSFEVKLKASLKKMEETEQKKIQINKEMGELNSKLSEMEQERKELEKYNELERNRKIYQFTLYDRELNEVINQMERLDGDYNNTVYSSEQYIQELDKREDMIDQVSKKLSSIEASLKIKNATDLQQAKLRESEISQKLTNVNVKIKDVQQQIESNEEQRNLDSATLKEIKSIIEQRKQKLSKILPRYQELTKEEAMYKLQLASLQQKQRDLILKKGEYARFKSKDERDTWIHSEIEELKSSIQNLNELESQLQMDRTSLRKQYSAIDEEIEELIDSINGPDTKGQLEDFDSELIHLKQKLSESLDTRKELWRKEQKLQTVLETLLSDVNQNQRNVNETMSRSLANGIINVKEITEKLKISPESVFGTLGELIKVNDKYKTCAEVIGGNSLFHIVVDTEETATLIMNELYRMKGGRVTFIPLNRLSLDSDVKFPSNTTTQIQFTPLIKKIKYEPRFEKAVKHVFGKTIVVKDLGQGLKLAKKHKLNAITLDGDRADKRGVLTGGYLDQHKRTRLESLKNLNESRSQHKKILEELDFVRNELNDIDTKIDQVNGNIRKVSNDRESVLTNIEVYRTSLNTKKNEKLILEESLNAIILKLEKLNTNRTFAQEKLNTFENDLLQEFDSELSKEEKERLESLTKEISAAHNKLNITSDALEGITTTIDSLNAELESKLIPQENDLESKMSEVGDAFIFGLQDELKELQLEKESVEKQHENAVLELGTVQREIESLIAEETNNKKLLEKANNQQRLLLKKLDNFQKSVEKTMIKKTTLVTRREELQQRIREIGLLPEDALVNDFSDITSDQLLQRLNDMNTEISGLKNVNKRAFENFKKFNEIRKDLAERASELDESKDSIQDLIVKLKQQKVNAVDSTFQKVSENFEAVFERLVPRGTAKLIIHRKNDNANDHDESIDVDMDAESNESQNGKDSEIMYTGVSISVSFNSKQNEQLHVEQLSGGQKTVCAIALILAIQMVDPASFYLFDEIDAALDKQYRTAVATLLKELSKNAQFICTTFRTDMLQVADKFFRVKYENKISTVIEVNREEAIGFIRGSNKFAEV

[2] = biological target: T2, Smc3 S72C (S. cerevisiae) (UniProt P47037); assay: as above
T2 sequence: T1 sequence with Q112K, Q113K, I1008R

- binding [1]: binds
- binding [2]: binds
B1: Scc2 E819C (natural protein, S. cerevisiae, UniProt Q04002 1-1493, looked up)
chain: MSYPGKDKNIPGRIIEALEDLPLSYLVPKDGLAALVNAPMRVSLPFDKTIFTSADDGRDVNINVLGTANSTTSSIKNEAEKERLVFKRPSNFTSSANSVDYVPTNFLEGLSPLAQSVLSTHKGLNDSINIEKKSEIVSRPEAKHKLESVTSNAGNLSFNDNSSNKKTKTSTGVTMTQANLAEQYLNDLKNILDIVGFDQNSAEIGNIEYWLQLPNKKFVLTTNCLTKLQMTIKNITDNPQLSNSIEITWLLRLLDVMVCNIKFSKSSLKMGLDDSMLRYIALLSTIVLFNIFLLGKNDSNLHRESYIMEPVNFLSDLIESLKILTIEYGSLKIEFDTFQEALELLPKYIRNGPFLDDNVTAKLVYIFSDLLMNNDIEATTNIQFQSFWDNVKRISSDILVSLFGSFDQQRGFIIEELLSHIEKLPTKRIQKKLRKVGNQNIYITDFTFTLMSMLENINCYSFCNQMKDIAPENIDLLKNEYKKQEEFLFNIVEHINDTILERFFKNPSALRYVIDNFVQDLLLLISSPQWPVTEKILSSLLKRLLSVYSPSMQVSANIETICLQLIGNIGSTIFDIKCSTRDHEDNNLIKMINYPETLPHFFKSFEECIAYNETIKCRRSATRFLWNLRLGTILILEEYTKDAKEQIITVDNELKKILEQIKDGGLGPELENREADFSTIKLDYFSILHAFELLNLYDPYLKLILSLLAKDKIKLRSTAIKCLSMLASKDKVILSNPMVKETIHRRLNDSSASVKDAILDLVSINSSYFEFYQQINNNYNDDSIMVRKHVLRINEKMYDETNDIVTKVYVIARILMKICDEEDNIIDMARLILLNRWILKVHEVLDQPEKLKEISSSVLLVMSRVAIMNEKCSQLFDLFLNFYLLNKEAHSKEAYDKITHVLTILTDFLVQKIVELNSDDTNEKNSIVDKQNFLNLLAKFADSTVSFLTKDHITALYPYMVSDEKSDFHYYILQVFRCTFEKLANFKQKFLYDLETTLLSRLPKMNVREIDEAMPLIWSVATHRHDTARVAKACSSCLSHLHPYINKANNEEAAIVVDGKLQRLIYLSTGFARFCFPKPSNDKIAFLQEGETLYEHITKCLLVLSKDKITHVIRRVAVKNLTKLCGNHPKLFNSRHVLHLLDKEFQSDQLDIKLVILESLYDLFLLEERKSVRNTGVNSTLSSNSILKKKLLKTNRVEFANDGVCSALATRFLDNILQLCLLRDLKNSLVAIRLLKLILKFGYTNPSHSIPTVIALFASTSQYIRHVAYELLEDLFEKYETLVFSSLSRGVTKAIHYSIHTDEKYYYKHDHFLSLLEKLCGTGKKNGPKFFKVLKRIMQSYLDDITDLTSTNSSVQKSIFVLCTNISNITFVSQYDLVSLLKTIDLTTDRLKEVIMDEIGDNVSSLSVSEEKLSGIILIQLSLQDLGTYLLHLYGLRDDVLLLDIVEESELKNKQLPAKKPDISKFSAQLENIEQYSSNGKLLTYFRKHVKDT
notes: Scc2, S. cerevisiae; source: S. cerevisiae W303, in vivo, whole-cell extract
